Measurements as given in the RNAGym collection of RNA variant scans (doi:10.7554/elife.90254).
The source gives no read counts; variants with many changes may rest on few reads.

B1: LINE1-mini (parent)
chain: GGCAGAGCUCAACACAGCGUGGCAAAGUGGCUGUGGCUAGACUGCC

Variants of: B1
Assay: self-cleavage, relative activity (ratio to wild type); higher = more cleavage; in vitro, sequencing; the parent is a self-cleaving ribozyme

**Q.** For GCCAGAGCUCAACACAGCGUGGCAAAAGGGCUGUGGCUAGACUGCC [G2C G27A U28G], which self-cleavage is on record?
**A.** The self-cleavage was 0.06.

**Q.** Which self-cleavage does the source give for GGCAGAGCUCAAAACAGCGUGGCAAAUUAGCAGUGGCCAGAAUGCC [C13A G27U G29A U32A U38C C42A] here?
**A.** The self-cleavage was 0.04.

**Q.** Which self-cleavage does the source give for GACAGAGCUCAUCAGAGCGUGGCAAAGUGGCUGUGGCUGGACUGCC [G2A A12U C15G A39G] here?
**A.** The self-cleavage was 0.04.

**Q.** For GGCAAAGCUCAAAACAGCGUGGCAAAGUGGCUAUGCCUAGACUGCC [G5A C13A G33A G36C], which self-cleavage is on record?
**A.** Its self-cleavage is 0.14.

**Q.** With GUCAGAUCUCAACACAGCGUGGGAAAGUGGCUGUGGCUAGACUGUC [G2U G7U C23G C45U] as the variant, how does the self-cleavage read?
**A.** The self-cleavage was 0.02.

**Q.** For GGCAGAGCUAAAUACAGCGUGGCAUAGUGGCUGUGGCUAGGCUGCC [C10A C13U A25U A41G], which self-cleavage is on record?
**A.** Its self-cleavage is 0.

**Q.** Which self-cleavage does the source give for GGCAGGGCUCAACACAGCGUGGCAAAGUCGCUGUGGCUACACUGCC [A6G G29C G40C] here?
**A.** Its self-cleavage is 0.06.

**Q.** Which self-cleavage does the source give for GGAAGAGCUCAACACAGCGAGGCAAAGUGGCUGUGGCUGGACUGCC [C3A U20A A39G] here?
**A.** The self-cleavage was 0.36.

**Q.** With GGCAGAGCUGAACACAGCGUGGCUAGGUGGCUGUGGCUAGACUGCU [C10G A24U A26G C46U] as the variant, how does the self-cleavage read?
**A.** The self-cleavage was 0.2.

**Q.** For GGCACAGCUCAACACAGCGUGGCAAAGACGCUCUGGCUCGACUCCC [G5C U28A G29C G33C A39C G44C], which self-cleavage is on record?
**A.** Its self-cleavage is 0.01.

**Q.** For CGCUGAGCUCAACACAGCGUGGCAAAUUGGCUGUGGCUAGACUGCG [G1C A4U G27U C46G], which self-cleavage is on record?
**A.** The self-cleavage was 0.09.

**Q.** Which self-cleavage does the source give for GGCAGAGCUCAACACAGCGUGGCAAAGUGGGCGUGGCUAUACUGCC [C31G U32C G40U] here?
**A.** Its self-cleavage is 0.02.

**Q.** Which self-cleavage does the source give for GGCAGAGUUCACCACAGUGUGGCAAAGGGGAUGUGGCUAGACUGCC [C8U A12C C18U U28G C31A] here?
**A.** The self-cleavage was 0.04.

**Q.** Which self-cleavage does the source give for GGCAGAGCUGAACACAGCGUGGCAAAGUGGCUGUGGCUAUACGGCC [C10G G40U U43G] here?
**A.** The self-cleavage was 0.

**Q.** Which self-cleavage does the source give for GGUAGAACUCAAUAAAGCGUGGUCAAGUGGGUGUUGCUAGACUGCC [C3U G7A C13U C15A C23U A24C C31G G35U] here?
**A.** Its self-cleavage is 0.01.

**Q.** For UGCAAAGCUCAACACAGCACGGAAAAUUGGCUGUAGCUACCCUGCC [G1U G5A G19A U20C C23A G27U G35A G40C A41C], which self-cleavage is on record?
**A.** Its self-cleavage is 0.12.

**Q.** Which self-cleavage does the source give for GGCAGAAAUCAACACAGCGUGGUUAAGUGGCUGUGGCUAGACUGCC [G7A C8A C23U A24U] here?
**A.** The self-cleavage was 0.06.

**Q.** For GGCAGAGCUCAACAGAGCAUGGCCGAGUGGCUAUGGCUAGACUGCC [C15G G19A A24C A25G G33A], which self-cleavage is on record?
**A.** Its self-cleavage is 0.02.

**Q.** For GGAAGAGCUAAACACAGGGGGGCAAAGUGGCUGUGGCUAGACUGAC [C3A C10A C18G U20G C45A], which self-cleavage is on record?
**A.** The self-cleavage was 0.

**Q.** For GGCCGGGCUCAACACAGCGUGGCAAAGUGUCUCUGGCUAGACUGCC [A4C A6G G30U G33C], which self-cleavage is on record?
**A.** Its self-cleavage is 0.02.

**Q.** With GGCAGAGCUCAACACAGCGUGGCAAAGUAGCCGUGGCUAGACUGGC [G29A U32C C45G] as the variant, how does the self-cleavage read?
**A.** Its self-cleavage is 0.07.

**Q.** Which self-cleavage does the source give for GGCACAGCUCAACACAGCGUGUCAAAGUGGCUGUGGCCAGACUGCC [G5C G22U U38C] here?
**A.** Its self-cleavage is 0.04.

**Q.** Which self-cleavage does the source give for GGCAGAGCUCAACGCAGCGUGGCAAAGGGGCUGUGGCUAGACUACC [A14G U28G G44A] here?
**A.** The self-cleavage was 0.12.

**Q.** Which self-cleavage does the source give for AGCAGAGCUCAACACGGCGUGGAAAAGUGGCUGUGGCUAGACUGCC [G1A A16G C23A] here?
**A.** Its self-cleavage is 0.32.

**Q.** For GGGAGAGCUCAACACAGCGUGGCAAAGUUACUGUGGCCAGACAGCC [C3G G29U G30A U38C U43A], which self-cleavage is on record?
**A.** The self-cleavage was 0.1.

**Q.** For UGCAGAGCUCAACAUAUCGUGGCAAAGUGGCUGUGGCUAGUCUGCC [G1U C15U G17U A41U], which self-cleavage is on record?
**A.** Its self-cleavage is 0.03.

**Q.** Which self-cleavage does the source give for GGCAGGGCUCAAAACAGCGUGGCAAUGUGGCUGUGGCUAGACUGCC [A6G C13A A26U] here?
**A.** The self-cleavage was 0.05.

**Q.** For GGCAGAGCUAAAGACAGCGUGGCAAAGUGGAUGUGGCUAGACUUCC [C10A C13G C31A G44U], which self-cleavage is on record?
**A.** Its self-cleavage is 0.04.

**Q.** For GGCAGAGCUCACCACCGCGUGUCAAAGUGCGUGUGACUAGACUGCC [A12C A16C G22U G30C C31G G36A], which self-cleavage is on record?
**A.** Its self-cleavage is 0.01.

**Q.** With GGCAGAGCUCAACACAGCGUGGCAAAGUGGCUGAGGCUAGACUCCA [U34A G44C C46A] as the variant, how does the self-cleavage read?
**A.** Its self-cleavage is 0.03.

**Q.** With GGCAGAGCUGAACAAAGCGUGGCAAAGUGGCUGUGGCUAGACAGCC [C10G C15A U43A] as the variant, how does the self-cleavage read?
**A.** The self-cleavage was 0.01.

**Q.** For GGCAGAGCUCAACACAGCGUAGCAAAGUGGCUGUUGUUAGUCUGCC [G21A G35U C37U A41U], which self-cleavage is on record?
**A.** Its self-cleavage is 0.03.

**Q.** For GGCAGGGCUGAACACAGCGCGGCAAAGUGGCUGUGGCUAGACUGCC [A6G C10G U20C], which self-cleavage is on record?
**A.** The self-cleavage was 0.01.

**Q.** Which self-cleavage does the source give for GGUAGAGCUAAACACAGCGUGGCAAAGUGGCUGAGGCUAGACUGCA [C3U C10A U34A C46A] here?
**A.** The self-cleavage was 0.04.

**Q.** For GUCAGAGCUCAACACAUCGUGGCCAAGUGGCUGUGGCUAGACUGCC [G2U G17U A24C], which self-cleavage is on record?
**A.** Its self-cleavage is 0.05.

**Q.** With GGCAGAGCUCAACAAAGCGUGGCAAAGUCGCUGUGGCAAGACUGUC [C15A G29C U38A C45U] as the variant, how does the self-cleavage read?
**A.** Its self-cleavage is 1.04.

**Q.** Which self-cleavage does the source give for GGCAGAGCUCAACACAGUGUGGCAAAGUAGCUGUGGCUAGACUGCU [C18U G29A C46U] here?
**A.** The self-cleavage was 1.91.

**Q.** Which self-cleavage does the source give for GGCAGAGGUCAACACAGCGUGCCAAAGAGGCUGUGGCUAGUCUGCU [C8G G22C U28A A41U C46U] here?
**A.** The self-cleavage was 0.28.

**Q.** Which self-cleavage does the source give for GGCAGAGCUCAACACAACUUGGCAAAGUGCCUGUGGCUAGACUGCC [G17A G19U G30C] here?
**A.** Its self-cleavage is 0.34.

**Q.** Which self-cleavage does the source give for GUCAGAGCUCAACACAGCGUGGCAGAGUGGUUGUGGCUAGACUGCC [G2U A25G C31U] here?
**A.** Its self-cleavage is 0.01.

**Q.** Which self-cleavage does the source give for GGCAGAGCUCAACACAGAGUGGUAAAGUGGCUGUGGCUUGACUGCC [C18A C23U A39U] here?
**A.** Its self-cleavage is 0.34.

**Q.** Which self-cleavage does the source give for GGUAGCGCUCAACAAGGCGUGGCAAAGUGGCUGUGGCUAGACUGCC [C3U A6C C15A A16G] here?
**A.** The self-cleavage was 0.25.

**Q.** With AGCAGAGCACAACACAGCGUUGCAAAGUGGCUGUGGCUAGACUGCC [G1A U9A G21U] as the variant, how does the self-cleavage read?
**A.** Its self-cleavage is 0.43.

**Q.** With CGCAGAGCUCACCACAACGUGGCUAAGUGGCUGUGGCUAGACUGCC [G1C A12C G17A A24U] as the variant, how does the self-cleavage read?
**A.** The self-cleavage was 0.02.

**Q.** Which self-cleavage does the source give for GGGAGAGCUCAACACAGCGUGUCAAAGUGGCUGUGGGUAGAGUGCC [C3G G22U C37G C42G] here?
**A.** Its self-cleavage is 0.

**Q.** Which self-cleavage does the source give for GGUAGAGCUCAACACAGCGUGGCAAAGUGGCUAUGGCUAGACUGUC [C3U G33A C45U] here?
**A.** Its self-cleavage is 0.07.

**Q.** For GGAAGAGCUCAACACAGCGUGGCCAAGUGGCAGUGGCUAGACUGCC [C3A A24C U32A], which self-cleavage is on record?
**A.** The self-cleavage was 0.1.

**Q.** For GGCAGAGCUCAACACCGCCUGGCAAAGUGGAUGUGGCUAGACUGCC [A16C G19C C31A], which self-cleavage is on record?
**A.** The self-cleavage was 0.

**Q.** With GGCAGAGCUCAAUAAAGCGUGGCAAAGUUGCUGUGGCUAGACUGCC [C13U C15A G29U] as the variant, how does the self-cleavage read?
**A.** The self-cleavage was 0.

**Q.** For AGCAGAGCUCAACACAGCGUGGGAAACGGGCUGAGGCUAGACUGCC [G1A C23G G27C U28G U34A], which self-cleavage is on record?
**A.** The self-cleavage was 0.09.

**Q.** Which self-cleavage does the source give for GGCAGAUCUCAACACAGCGUGGAAAAGUGGCUGUGACUAGACUGCC [G7U C23A G36A] here?
**A.** Its self-cleavage is 1.55.

**Q.** Which self-cleavage does the source give for GCCAGAGCUCACCACAGCGUGGCAGAGUGGCUGUGGCUAGACUACC [G2C A12C A25G G44A] here?
**A.** Its self-cleavage is 0.01.

**Q.** Which self-cleavage does the source give for GGCCGAGCUCAACACAGCCUAGCAAAGUGGCUGUGGCUAGACUGCC [A4C G19C G21A] here?
**A.** Its self-cleavage is 0.05.

**Q.** With GGCAGAGCUCAACACAGCGUGCCAAGGUGUCUGUGGCUAGACUGAC [G22C A26G G30U C45A] as the variant, how does the self-cleavage read?
**A.** The self-cleavage was 0.19.

**Q.** For GGCAGUGCUCAAGACAGCGUGGCAAAGUGGCUGUUGCUAGACUGCC [A6U C13G G35U], which self-cleavage is on record?
**A.** Its self-cleavage is 0.55.

**Q.** Which self-cleavage does the source give for GGCAGAGCUCAACACUGCGUGGCGAAGUGGCUGUGACUGGACUGCC [A16U A24G G36A A39G] here?
**A.** Its self-cleavage is 0.02.
